We go through six molecules from article PMC4332150.

The chains behind the UniProt entries cited, without tags or fusion partners. Where a name states a change or a piece, a line headed by the entry shows the natural chain unless it says otherwise. A line that says so, or that is headed by a name, gives the form on record, which may keep a tag or linker.
UniProt P05412: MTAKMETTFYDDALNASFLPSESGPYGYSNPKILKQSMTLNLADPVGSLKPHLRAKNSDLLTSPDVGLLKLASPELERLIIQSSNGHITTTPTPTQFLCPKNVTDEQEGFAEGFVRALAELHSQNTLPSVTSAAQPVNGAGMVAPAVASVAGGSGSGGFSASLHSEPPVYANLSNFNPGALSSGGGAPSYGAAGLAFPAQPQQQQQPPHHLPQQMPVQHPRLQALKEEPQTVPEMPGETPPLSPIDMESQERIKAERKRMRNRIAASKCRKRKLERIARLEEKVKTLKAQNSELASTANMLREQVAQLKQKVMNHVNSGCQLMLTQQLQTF
UniProt P16220: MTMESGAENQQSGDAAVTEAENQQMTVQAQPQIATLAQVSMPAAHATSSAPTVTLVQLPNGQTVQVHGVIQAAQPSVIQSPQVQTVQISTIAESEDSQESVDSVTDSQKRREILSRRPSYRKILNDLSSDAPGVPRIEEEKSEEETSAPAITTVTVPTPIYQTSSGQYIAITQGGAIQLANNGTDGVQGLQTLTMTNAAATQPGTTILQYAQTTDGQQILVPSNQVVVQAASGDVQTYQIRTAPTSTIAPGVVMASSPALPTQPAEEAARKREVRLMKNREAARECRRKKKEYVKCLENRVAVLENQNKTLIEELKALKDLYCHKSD
UniProt Q9Y297: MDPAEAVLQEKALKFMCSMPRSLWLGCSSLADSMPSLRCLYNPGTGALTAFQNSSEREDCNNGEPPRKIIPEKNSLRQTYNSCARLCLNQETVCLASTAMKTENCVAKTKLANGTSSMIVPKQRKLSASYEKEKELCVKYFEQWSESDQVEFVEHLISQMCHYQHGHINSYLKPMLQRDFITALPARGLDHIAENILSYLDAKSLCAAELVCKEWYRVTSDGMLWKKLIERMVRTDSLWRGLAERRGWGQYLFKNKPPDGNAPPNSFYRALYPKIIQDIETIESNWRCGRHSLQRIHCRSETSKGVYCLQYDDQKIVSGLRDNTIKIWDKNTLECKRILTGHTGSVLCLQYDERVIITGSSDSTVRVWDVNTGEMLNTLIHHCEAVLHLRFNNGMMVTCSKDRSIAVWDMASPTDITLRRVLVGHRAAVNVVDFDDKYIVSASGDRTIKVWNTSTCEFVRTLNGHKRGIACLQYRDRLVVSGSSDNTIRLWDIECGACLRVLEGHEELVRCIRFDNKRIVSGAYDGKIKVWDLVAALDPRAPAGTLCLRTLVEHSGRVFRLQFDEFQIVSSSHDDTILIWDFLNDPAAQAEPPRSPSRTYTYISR
MYC-tagged βTRCP (R474A) (Q9Y297-2, form named): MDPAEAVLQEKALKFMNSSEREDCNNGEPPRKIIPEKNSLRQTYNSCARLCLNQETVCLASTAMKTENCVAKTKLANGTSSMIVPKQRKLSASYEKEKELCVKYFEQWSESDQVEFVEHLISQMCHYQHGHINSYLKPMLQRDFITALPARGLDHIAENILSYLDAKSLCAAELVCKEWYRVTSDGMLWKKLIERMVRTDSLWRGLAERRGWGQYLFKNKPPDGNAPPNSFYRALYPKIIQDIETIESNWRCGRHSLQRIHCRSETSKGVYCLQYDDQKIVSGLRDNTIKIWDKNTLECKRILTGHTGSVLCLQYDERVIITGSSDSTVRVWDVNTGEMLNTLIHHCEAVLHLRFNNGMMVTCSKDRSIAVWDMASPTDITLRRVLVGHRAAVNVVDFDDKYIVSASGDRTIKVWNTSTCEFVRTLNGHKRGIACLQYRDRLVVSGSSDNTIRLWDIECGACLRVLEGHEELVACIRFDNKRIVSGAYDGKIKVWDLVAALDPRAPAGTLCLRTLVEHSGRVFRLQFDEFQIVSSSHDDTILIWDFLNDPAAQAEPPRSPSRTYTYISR
UniProt Q9UKB1: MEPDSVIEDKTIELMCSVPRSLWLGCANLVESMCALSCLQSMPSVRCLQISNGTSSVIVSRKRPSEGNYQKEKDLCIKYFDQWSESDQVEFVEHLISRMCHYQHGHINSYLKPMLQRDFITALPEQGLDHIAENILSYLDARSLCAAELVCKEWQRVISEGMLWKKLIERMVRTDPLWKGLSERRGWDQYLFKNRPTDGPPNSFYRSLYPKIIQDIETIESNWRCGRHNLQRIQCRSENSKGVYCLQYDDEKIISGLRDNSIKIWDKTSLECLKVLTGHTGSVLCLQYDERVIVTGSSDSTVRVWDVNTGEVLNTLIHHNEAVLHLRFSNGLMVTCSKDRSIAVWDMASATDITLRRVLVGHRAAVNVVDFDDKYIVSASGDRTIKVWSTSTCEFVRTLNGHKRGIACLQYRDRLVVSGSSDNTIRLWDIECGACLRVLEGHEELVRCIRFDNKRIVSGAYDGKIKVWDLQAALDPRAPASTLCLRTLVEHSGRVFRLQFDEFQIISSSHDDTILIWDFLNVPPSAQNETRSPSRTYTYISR

No constants are given. Whether binding was seen depends on the method and setting. In cells and extracts the contact can be indirect. Some results given as binding are weak or reduced against the parent protein; the word gives no strength. Sequences can lack the tags named with a protein.

The target in one experiment is T1, SFB-tagged FOXN2 (human) (UniProt P32314).
T1 sequence: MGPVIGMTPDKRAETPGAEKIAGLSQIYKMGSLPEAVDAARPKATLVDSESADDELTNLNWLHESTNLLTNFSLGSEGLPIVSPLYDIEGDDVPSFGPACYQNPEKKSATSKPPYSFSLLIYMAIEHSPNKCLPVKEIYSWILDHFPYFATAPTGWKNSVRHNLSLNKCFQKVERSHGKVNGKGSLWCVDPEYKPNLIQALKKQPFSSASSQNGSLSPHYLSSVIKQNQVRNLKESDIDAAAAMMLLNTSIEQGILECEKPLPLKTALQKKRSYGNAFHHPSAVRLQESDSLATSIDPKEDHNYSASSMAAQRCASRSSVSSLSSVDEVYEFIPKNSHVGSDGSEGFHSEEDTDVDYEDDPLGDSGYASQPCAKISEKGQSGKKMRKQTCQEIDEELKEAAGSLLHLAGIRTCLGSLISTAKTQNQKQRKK
Briefly: pull-down; 293T cells co-transfected with SFB-tagged and MYC-tagged constructs; S-protein beads, immunoblot; called co-IP in the text. On the technique in general: In western blotting, separated proteins are transferred to a membrane and probed.

The target in experiment [1] is SFB-tagged JUN (human) (UniProt P05412). Nature of the experiment: pull-down; 293T cells co-transfected with MYC-tagged and SFB-tagged constructs; S-protein beads, immunoblot; chromatin fraction.
The target in experiment [2] is SFB-tagged CREB1 (human) (UniProt P16220). Described as above.
Experiment [3] concerns the target T2, SFB-tagged ATF2 (UniProt P15336).
T2 sequence: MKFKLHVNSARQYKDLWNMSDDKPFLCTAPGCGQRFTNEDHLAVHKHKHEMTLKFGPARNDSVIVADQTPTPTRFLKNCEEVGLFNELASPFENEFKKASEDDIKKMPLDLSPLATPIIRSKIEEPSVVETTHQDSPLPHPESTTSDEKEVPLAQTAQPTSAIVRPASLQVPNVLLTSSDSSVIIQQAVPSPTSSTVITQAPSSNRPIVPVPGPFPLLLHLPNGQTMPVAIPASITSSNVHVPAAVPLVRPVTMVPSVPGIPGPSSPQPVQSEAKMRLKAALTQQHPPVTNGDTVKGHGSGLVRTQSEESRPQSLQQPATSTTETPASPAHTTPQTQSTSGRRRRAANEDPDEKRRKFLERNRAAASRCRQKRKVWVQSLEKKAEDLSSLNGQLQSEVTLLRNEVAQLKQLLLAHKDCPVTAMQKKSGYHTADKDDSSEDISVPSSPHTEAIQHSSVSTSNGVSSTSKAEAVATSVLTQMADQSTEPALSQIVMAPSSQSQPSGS
The description is as above.

Experiment [4] has as its target SFB-tagged JUN (human) (UniProt P05412). Briefly: pull-down; 293T cells co-transfected with MYC-tagged and SFB-tagged constructs; S-protein beads, immunoblot; soluble fraction.
Experiment [5] addresses SFB-tagged CREB1 (human) (UniProt P16220). Described as above.
Experiment [6] addresses T2, SFB-tagged ATF2. Described as above.
A further experiment addresses T3, SFB-tagged ATF1 (UniProt P18846).
T3 sequence: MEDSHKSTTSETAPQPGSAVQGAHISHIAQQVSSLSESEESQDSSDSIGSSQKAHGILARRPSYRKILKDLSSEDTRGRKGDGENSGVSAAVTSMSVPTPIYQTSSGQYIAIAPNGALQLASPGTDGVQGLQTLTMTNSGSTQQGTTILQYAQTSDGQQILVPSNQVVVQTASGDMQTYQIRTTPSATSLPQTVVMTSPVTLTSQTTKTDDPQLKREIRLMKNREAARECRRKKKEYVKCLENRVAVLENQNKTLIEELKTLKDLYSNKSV
Briefly: pull-down; 293T cells co-transfected with MYC-tagged and SFB-tagged constructs; S-protein beads, immunoblot; chromatin fraction.

Regarding “MYC-tagged βTRCP (from UniProt Q9Y297 1-605)”, the binding entry in the experiment with SFB-tagged FOXN2 (human) is on record as “binds”.

For “MYC-tagged βTRCP (R474A) (from UniProt Q9Y297-2 1-569)”, in the experiment with SFB-tagged FOXN2 (human), the binding entry is given as “no binding”.

Turning to “MYC-tagged βTRCP2 (from UniProt Q9UKB1 1-542)”, the binding result with SFB-tagged FOXN2 (human) is given as “binds”.

B1: MYC-tagged ATF1 (protein, UniProt P18846 1-271)
chain: MEDSHKSTTSETAPQPGSAVQGAHISHIAQQVSSLSESEESQDSSDSIGSSQKAHGILARRPSYRKILKDLSSEDTRGRKGDGENSGVSAAVTSMSVPTPIYQTSSGQYIAIAPNGALQLASPGTDGVQGLQTLTMTNSGSTQQGTTILQYAQTSDGQQILVPSNQVVVQTASGDMQTYQIRTTPSATSLPQTVVMTSPVTLTSQTTKTDDPQLKREIRLMKNREAARECRRKKKEYVKCLENRVAVLENQNKTLIEELKTLKDLYSNKSV
Turning to B1, the binding entry with SFB-tagged JUN (human) [1], in the experiment with SFB-tagged CREB1 (human) [2], with SFB-tagged ATF2 [3], with SFB-tagged JUN (human) [4], in the experiment with SFB-tagged CREB1 (human) [5] and with SFB-tagged ATF2 [6] was “binds” in each case.

B2: MYC-tagged NFATC1 (protein, UniProt O95644 1-943)
chain: MPSTSFPVPSKFPLGPAAAVFGRGETLGPAPRAGGTMKSAEEEHYGYASSNVSPALPLPTAHSTLPAPCHNLQTSTPGIIPPADHPSGYGAALDGGPAGYFLSSGHTRPDGAPALESPRIEITSCLGLYHNNNQFFHDVEVEDVLPSSKRSPSTATLSLPSLEAYRDPSCLSPASSLSSRSCNSEASSYESNYSYPYASPQTSPWQSPCVSPKTTDPEEGFPRGLGACTLLGSPRHSPSTSPRASVTEESWLGARSSRPASPCNKRKYSLNGRQPPYSPHHSPTPSPHGSPRVSVTDDSWLGNTTQYTSSAIVAAINALTTDSSLDLGDGVPVKSRKTTLEQPPSVALKVEPVGEDLGSPPPPADFAPEDYSSFQHIRKGGFCDQYLAVPQHPYQWAKPKPLSPTSYMSPTLPALDWQLPSHSGPYELRIEVQPKSHHRAHYETEGSRGAVKASAGGHPIVQLHGYLENEPLMLQLFIGTADDRLLRPHAFYQVHRITGKTVSTTSHEAILSNTKVLEIPLLPENSMRAVIDCAGILKLRNSDIELRKGETDIGRKNTRVRLVFRVHVPQPSGRTLSLQVASNPIECSQRSAQELPLVEKQSTDSYPVVGGKKMVLSGHNFLQDSKVIFVEKAPDGHHVWEMEAKTDRDLCKPNSLVVEIPPFRNQRITSPVHVSFYVCNGKRKRSQYQRFTYLPANVPIIKTEPTDDYEPAPTCGPVSQGLSPLPRPYYSQQLAMPPDPSSCLVAGFPPCPQRSTLMPAAPGVSPKLHDLSPAAYTKGVASPGHCHLGLPQPAGEAPAVQDVPRPVATHPGSPGQPPPALLPQQVSAPPSSSCPPGLEHSLCPSSPSPPLPPATQEPTCLQPCSPACPPATGRPQHLPSTVRRDESPTAGPRLLPEVHEDGSPNLAPIPVTVKREPEELDQLYLDDVNEIIRNDLSSTSTHS
Turning to B2, the binding entry with SFB-tagged JUN (human) [1], with SFB-tagged CREB1 (human) [2], with SFB-tagged ATF2 [3] and with SFB-tagged ATF1 was “binds” in each case.

B3: MYC-tagged RFX1 (protein, UniProt P22670 1-979)
chain: MATQAYTELQAAPPPSQPPQAPPQAQPQPPPPPPPAAPQPPQPPTAAATPQPQYVTELQSPQPQAQPPGGQKQYVTELPAVPAPSQPTGAPTPSPAPQQYIVVTVSEGAMRASETVSEASPGSTASQTGVPTQVVQQVQGTQQRLLVQTSVQAKPGHVSPLQLTNIQVPQQALPTQRLVVQSAAPGSKGGQVSLTVHGTQQVHSPPEQSPVQANSSSSKTAGAPTGTVPQQLQVHGVQQSVPVTQERSVVQATPQAPKPGPVQPLTVQGLQPVHVAQEVQQLQQVPVPHVYSSQVQYVEGGDASYTASAIRSSTYSYPETPLYTQTASTSYYEAAGTATQVSTPATSQAVASSGSMPMYVSGSQVVASSTSTGAGASNSSGGGGSGGGGGGGGGGGGGGSGSTGGGGSGAGTYVIQGGYMLGSASQSYSHTTRASPATVQWLLDNYETAEGVSLPRSTLYCHYLLHCQEQKLEPVNAASFGKLIRSVFMGLRTRRLGTRGNSKYHYYGLRIKASSPLLRLMEDQQHMAMRGQPFSQKQRLKPIQKMEGMTNGVAVGQQPSTGLSDISAQVQQYQQFLDASRSLPDFTELDLQGKVLPEGVGPGDIKAFQVLYREHCEAIVDVMVNLQFTLVETLWKTFWRYNLSQPSEAPPLAVHDEAEKRLPKAILVLLSKFEPVLQWTKHCDNVLYQGLVEILIPDVLRPIPSALTQAIRNFAKSLESWLTHAMVNIPEEMLRVKVAAAGAFAQTLRRYTSLNHLAQAARAVLQNTAQINQMLSDLNRVDFANVQEQASWVCRCEDRVVQRLEQDFKVTLQQQNSLEQWAAWLDGVVSQVLKPYQGSAGFPKAAKLFLLKWSFYSSMVIRDLTLRSAASFGSFHLIRLLYDEYMYYLIEHRVAQAKGETPIAVMGEFANLATSLNPLDPDKDEEEEEEEESEDELPQDISLAAGGESPALGPETLEPPAKLARTDARGLFVQALPSS
For B3, the binding entry with SFB-tagged FOXN2 (human) was “binds”.
